Data: the BET-seq Pho4 binding data (Le et al. 2018)
The other results are listed elsewhere or left out. Values were computed here from the reads of four pooled replicates and scatter widely.

Target: T1, Pho4 (S. cerevisiae) (UniProt P07270)
T1 sequence: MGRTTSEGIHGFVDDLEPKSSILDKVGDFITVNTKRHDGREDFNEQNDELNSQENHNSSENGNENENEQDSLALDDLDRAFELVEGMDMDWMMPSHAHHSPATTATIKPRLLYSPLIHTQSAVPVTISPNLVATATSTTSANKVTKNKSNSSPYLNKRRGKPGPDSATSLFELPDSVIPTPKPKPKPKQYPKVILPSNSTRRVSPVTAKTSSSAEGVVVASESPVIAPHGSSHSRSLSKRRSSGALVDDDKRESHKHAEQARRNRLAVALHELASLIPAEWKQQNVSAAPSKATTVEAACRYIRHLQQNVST
Experiment: relative binding free energy (BET-seq); higher = weaker binding
Details: reference: library average

Sequence	relative binding free energy
ACTAGCACGTGTATGT	-0.12 kcal/mol
TTGTACACGTGGGTGT	-0.06 kcal/mol
TTGGACACGTGATAAG	0.3 kcal/mol
CTTACCACGTGGGGGT	-0.23 kcal/mol
GTGTTCACGTGTATAA	0.08 kcal/mol
GAGTACACGTGAGGTT	0.44 kcal/mol
AGGCGCACGTGTGTGC	0.03 kcal/mol
AAGTACACGTGTTTGT	0.05 kcal/mol
AAAGTCACGTGGGGTA	-0.14 kcal/mol
AGGGTCACGTGACGTG	0.11 kcal/mol
TTTGACACGTGGTAAA	-0.02 kcal/mol
TAGGACACGTGGTGAT	0.04 kcal/mol
GGTCACACGTGGCAGG	0.13 kcal/mol
TTAAGCACGTGTACGG	-0.16 kcal/mol
CATGTCACGTGGTTTG	0.06 kcal/mol
GTGCCCACGTGCGGGG	-0.13 kcal/mol
AGTGTCACGTGCTAGT	-0.03 kcal/mol
AAGGGCACGTGTGCGC	-0.13 kcal/mol
GTTGCCACGTGAATAG	0.39 kcal/mol
CTGTACACGTGTGGGT	0.12 kcal/mol
AATGTCACGTGATGCT	0.19 kcal/mol
CTTATCACGTGTAGGG	0.04 kcal/mol
AGGGTCACGTGGAAGG	0.18 kcal/mol
GGTTTCACGTGGCAAG	0.18 kcal/mol
TGTATCACGTGGATCT	0.18 kcal/mol
AGTTTCACGTGGGCGA	0.21 kcal/mol

Sequence	relative binding free energy
TTCACCACGTGTTTGG	0.09 kcal/mol
AAGTCCACGTGAGTTT	0.46 kcal/mol
GTGGTCACGTGCAAAG	0.22 kcal/mol
TCGGCCACGTGTAGTG	0.16 kcal/mol
GAGGGCACGTGTAGCT	-0.12 kcal/mol
ATTGGCACGTGCGCGG	-0.35 kcal/mol
AATGTCACGTGTGGGA	0.15 kcal/mol
TTATTCACGTGGGGCG	0.22 kcal/mol
AGTTGCACGTGTGGCT	0.01 kcal/mol
TTTTGCACGTGGCCAG	-0.04 kcal/mol
AGTGTCACGTGGATAG	0.01 kcal/mol
TTATACACGTGGAGGA	0.11 kcal/mol
TTAACCACGTGGTGTT	-0.05 kcal/mol
ACGTTCACGTGATTGT	0.16 kcal/mol
TGTTGCACGTGTTAGA	0.02 kcal/mol
GGTGCCACGTGTGAGG	0.02 kcal/mol
GTGGGCACGTGACGGG	0.09 kcal/mol
AGTGTCACGTGTAAGT	0.23 kcal/mol
TTATTCACGTGATTGA	0.21 kcal/mol
TGTTGCACGTGTTTTT	0.02 kcal/mol
GTCATCACGTGAGTGG	0.29 kcal/mol
AAAGTCACGTGAGATG	0.19 kcal/mol
GTGGTCACGTGACAGT	0.18 kcal/mol
GGTGGCACGTGTATAG	-0.08 kcal/mol
AGTTGCACGTGATTAG	0.08 kcal/mol
TCAGACACGTGGTGGT	-0.03 kcal/mol

Sequence	relative binding free energy
TGTGCCACGTGTGTTG	-0.1 kcal/mol
TGGATCACGTGTTGAA	0.22 kcal/mol
GGGTCCACGTGGCTGG	0.1 kcal/mol
ATATACACGTGAGTAT	0.19 kcal/mol
AGAGTCACGTGGGACG	0.11 kcal/mol
GGGAACACGTGGGGAC	0.05 kcal/mol
TTGATCACGTGAATTT	0.35 kcal/mol
TTCGTCACGTGAATGA	0.34 kcal/mol
TGTATCACGTGTTGTA	0.09 kcal/mol
CAGTGCACGTGAGTGT	0.06 kcal/mol
GGTGTCACGTGTGTAA	0.12 kcal/mol
TTTTGCACGTGGAGAA	0.08 kcal/mol
AAATGCACGTGAGGAT	0.37 kcal/mol
CTGGGCACGTGATATA	0.03 kcal/mol
AGTAGCACGTGCTTTT	-0.13 kcal/mol
AATGGCACGTGGTGTG	-0.28 kcal/mol
AAGATCACGTGGGGTA	-0.13 kcal/mol
GGGAACACGTGTCGGG	0.14 kcal/mol
TATTTCACGTGATGCG	0.23 kcal/mol
CATGTCACGTGATTGT	0.15 kcal/mol
CGGGTCACGTGGTGGC	-0.01 kcal/mol
GTTAGCACGTGTGATT	0.08 kcal/mol
AGTTTCACGTGTAGTC	0.26 kcal/mol
GGAAACACGTGTTAGT	0.09 kcal/mol
TTATGCACGTGTTGAC	0.04 kcal/mol
GACTGCACGTGGGGGA	-0.13 kcal/mol

Sequence	relative binding free energy
TAGGTCACGTGTATTC	0.13 kcal/mol
TTTCGCACGTGGGCAT	-0.21 kcal/mol
ATATACACGTGTAGTT	-0.02 kcal/mol
TTTCACACGTGTATAT	0.02 kcal/mol
GGGTGCACGTGATGGA	0.08 kcal/mol
GATGACACGTGGGGTT	0.04 kcal/mol
TTGATCACGTGTGGGA	0.13 kcal/mol
AGTGTCACGTGTATCG	0.04 kcal/mol
AGCAGCACGTGTTTTT	-0.02 kcal/mol
CGGTTCACGTGAGAAT	0.43 kcal/mol
ATATTCACGTGAGAGT	0.19 kcal/mol
CTATCCACGTGGGTGG	-0.1 kcal/mol
GTAATCACGTGAGAGG	0.42 kcal/mol
TTGCTCACGTGCTGTT	0.12 kcal/mol
TGTCGCACGTGAGGGG	0.19 kcal/mol
CTAGTCACGTGTTGAA	0.17 kcal/mol
AAAATCACGTGGGTGA	0.03 kcal/mol
CGTAGCACGTGCGTTT	-0.09 kcal/mol
GTTTTCACGTGTAGCT	0.33 kcal/mol
GCTGACACGTGGGGTT	0 kcal/mol
TTTCTCACGTGAGGTC	0.42 kcal/mol
TCATGCACGTGGGGAG	-0.2 kcal/mol
TCTGGCACGTGACTTG	0.04 kcal/mol
GGGGGCACGTGCATCT	0.04 kcal/mol
GGTGTCACGTGCGAAG	0.02 kcal/mol
AGGAGCACGTGTTGAT	-0.35 kcal/mol

Sequence	relative binding free energy
AGGATCACGTGGAGTC	0.21 kcal/mol
GTTATCACGTGAGTCG	0.39 kcal/mol
TTTTTCACGTGGCGGC	0.23 kcal/mol
TAGGTCACGTGTTGGC	0.03 kcal/mol
GTAGTCACGTGGGTGA	0 kcal/mol
CTTGGCACGTGGGGGA	-0.31 kcal/mol
TTGCGCACGTGGGGTA	-0.22 kcal/mol
GCTGGCACGTGGAGAG	0.05 kcal/mol
GAGGTCACGTGTTACT	0.35 kcal/mol
ATTTACACGTGTGTAA	0.08 kcal/mol
TACAGCACGTGTTAGG	-0.21 kcal/mol
TCGATCACGTGAGGGG	0.23 kcal/mol
TGAGTCACGTGTAGAG	0.13 kcal/mol
ATTGCCACGTGGTAGG	-0.22 kcal/mol
TGGTTCACGTGCGTGC	0.24 kcal/mol
CGGAGCACGTGGGATT	-0.01 kcal/mol
GCTTGCACGTGGTGAT	0.01 kcal/mol
TGGCACACGTGTGGAT	0.04 kcal/mol
TAGTTCACGTGGGCGG	0.3 kcal/mol
GGTTCCACGTGGTATG	0.1 kcal/mol
CAGTTCACGTGAAGGG	0.35 kcal/mol
CTTGACACGTGAGGGT	0.19 kcal/mol
AGGCTCACGTGAGGTT	0.44 kcal/mol
TTTGACACGTGGGATT	0.15 kcal/mol
AGTTTCACGTGAATTG	0.37 kcal/mol
GGTCACACGTGGTGTT	0.11 kcal/mol

Sequence	relative binding free energy
GGGGGCACGTGCGTCT	-0.2 kcal/mol
TTGGTCACGTGGCGGA	0.01 kcal/mol
CAATGCACGTGAGAGT	0.34 kcal/mol
TCGGCCACGTGAGGGG	0.08 kcal/mol
TATAGCACGTGATGGT	0.22 kcal/mol
CTTGTCACGTGTACGT	0.2 kcal/mol
AACGGCACGTGGTTAG	-0.06 kcal/mol
AGGTGCACGTGTAAGT	0.06 kcal/mol
GTACGCACGTGGTTGC	-0.01 kcal/mol
AATTCCACGTGGAGGT	0.16 kcal/mol
GTGAGCACGTGCGGGC	-0.14 kcal/mol
GGGCTCACGTGCGGTT	0.28 kcal/mol
ATAGTCACGTGTGTAT	0.05 kcal/mol
CGGATCACGTGAATGG	0.4 kcal/mol
AGGTTCACGTGTATAA	0.14 kcal/mol
TGAATCACGTGGTTGT	0.14 kcal/mol
CGTTCCACGTGTGGTT	0.05 kcal/mol
TATATCACGTGCGTTT	0.17 kcal/mol
GTTTTCACGTGATAGC	0.29 kcal/mol
CTTAGCACGTGTGATA	0.07 kcal/mol
TGCTGCACGTGTTTTA	0.04 kcal/mol
GACGTCACGTGTGTTG	0.25 kcal/mol
CTTGTCACGTGGGTAT	0.03 kcal/mol
GTAATCACGTGGTATA	0.12 kcal/mol
AAGTACACGTGTGGCG	0.22 kcal/mol
GTGCGCACGTGCAGTG	-0.02 kcal/mol

Sequence	relative binding free energy
GGATTCACGTGGTACT	0.36 kcal/mol
GGTCTCACGTGTTTTG	0.29 kcal/mol
AGTTGCACGTGAAAGG	0.1 kcal/mol
TAGTACACGTGTTCGG	0.05 kcal/mol
ATTGGCACGTGCGTTT	-0.19 kcal/mol
GAGTACACGTGATGGC	0.28 kcal/mol
TTGGGCACGTGTGCGG	-0.1 kcal/mol
AGGTACACGTGTCATG	0.03 kcal/mol
ATTATCACGTGTCGGA	0.18 kcal/mol
TGTGACACGTGATATT	0.04 kcal/mol
CGAGGCACGTGGTTGC	-0.15 kcal/mol
TTGGTCACGTGACGTG	0.2 kcal/mol
AGTTTCACGTGACTAG	0.39 kcal/mol
GTTGGCACGTGCGTGA	-0.08 kcal/mol
GGTAGCACGTGTTCTT	-0.03 kcal/mol
GGCTTCACGTGTATAG	0.3 kcal/mol
GATAGCACGTGAGGGC	0.47 kcal/mol
AAATTCACGTGGGGGG	0.11 kcal/mol
AAGTTCACGTGGTAAA	0.16 kcal/mol
GGGTCCACGTGGGGGG	0 kcal/mol
AGGTACACGTGGGGCT	0.01 kcal/mol
GTGTACACGTGCGTTG	0.08 kcal/mol
GTATTCACGTGATGCT	0.17 kcal/mol
AGGGGCACGTGAAGGG	0.16 kcal/mol
TGTTACACGTGGCGGG	0.14 kcal/mol
CTTTACACGTGGAGGT	0.03 kcal/mol

Sequence	relative binding free energy
GAATTCACGTGTATAT	0.47 kcal/mol
GGTCTCACGTGCGGTT	0.16 kcal/mol
GACTGCACGTGGGTAG	-0.12 kcal/mol
TGTTTCACGTGATGAC	0.43 kcal/mol
TCTTGCACGTGGGACT	-0.01 kcal/mol
TGCGTCACGTGGGGGG	-0.01 kcal/mol
TGGGTCACGTGGGCAC	-0.02 kcal/mol
GATGGCACGTGTTTGA	0.12 kcal/mol
TTGTGCACGTGATGAT	0.04 kcal/mol
GTATGCACGTGCTATT	-0.02 kcal/mol
ATCTTCACGTGGGCGT	0.13 kcal/mol
TTTGGCACGTGTGGCG	0.04 kcal/mol
GGGGGCACGTGGGGAA	-0.09 kcal/mol
CGGGGCACGTGTATAG	-0.12 kcal/mol
GCAGGCACGTGAGTGG	0.11 kcal/mol
TGGGCCACGTGAAGGA	0.19 kcal/mol
GTGATCACGTGATGTA	0.18 kcal/mol
TAGTACACGTGAATTG	0.44 kcal/mol
AATGACACGTGGGGGC	-0.16 kcal/mol
AGTTTCACGTGAACGG	0.43 kcal/mol
CGTAGCACGTGGTAGG	-0.09 kcal/mol
TTCCTCACGTGGTAGG	0.15 kcal/mol
TGATGCACGTGCTGAG	-0.1 kcal/mol
GTAATCACGTGTGAGA	0.2 kcal/mol
AGAACCACGTGTGGGG	0 kcal/mol
AATTACACGTGTTAAT	0.15 kcal/mol

Sequence	relative binding free energy
AGTTGCACGTGGAGTA	-0.05 kcal/mol
GGGAACACGTGTGTGA	0.16 kcal/mol
AATGTCACGTGTAGTT	0.16 kcal/mol
ATGGGCACGTGTCTGT	-0.24 kcal/mol
GGGTTCACGTGTCTTT	0.19 kcal/mol
ACGAGCACGTGTGAGT	0.01 kcal/mol
AAGGACACGTGGTGCG	-0.07 kcal/mol
TAGTTCACGTGTAAGT	0.22 kcal/mol
GCTGGCACGTGGATGG	-0.08 kcal/mol
TAAATCACGTGTATGA	0.06 kcal/mol
TCTGTCACGTGTTGAG	0.17 kcal/mol
AATGGCACGTGCAGTG	-0.07 kcal/mol
TTTTTCACGTGGGTGC	0.19 kcal/mol
ATAAACACGTGATGGG	0.1 kcal/mol
AGTAGCACGTGGCTTG	-0.21 kcal/mol
TAGGGCACGTGCGTGC	-0.24 kcal/mol
AGCTGCACGTGGTTGA	-0.09 kcal/mol
CAGGTCACGTGATTGG	0.18 kcal/mol
CGGTCCACGTGAGGTT	0.37 kcal/mol
GTATTCACGTGTGTTT	0.34 kcal/mol
AGTTTCACGTGGAGCA	0.25 kcal/mol
TTTTGCACGTGTGGAA	0.01 kcal/mol
